# In all, about 33,000 sequences were measured (“E-score (-0.5 to 0.5)”: median about -0.035, highest 2% from about 0.34 on). This is one part of the list.
# Target: T1, Mot3 (UniProt P54785)
# T1 sequence: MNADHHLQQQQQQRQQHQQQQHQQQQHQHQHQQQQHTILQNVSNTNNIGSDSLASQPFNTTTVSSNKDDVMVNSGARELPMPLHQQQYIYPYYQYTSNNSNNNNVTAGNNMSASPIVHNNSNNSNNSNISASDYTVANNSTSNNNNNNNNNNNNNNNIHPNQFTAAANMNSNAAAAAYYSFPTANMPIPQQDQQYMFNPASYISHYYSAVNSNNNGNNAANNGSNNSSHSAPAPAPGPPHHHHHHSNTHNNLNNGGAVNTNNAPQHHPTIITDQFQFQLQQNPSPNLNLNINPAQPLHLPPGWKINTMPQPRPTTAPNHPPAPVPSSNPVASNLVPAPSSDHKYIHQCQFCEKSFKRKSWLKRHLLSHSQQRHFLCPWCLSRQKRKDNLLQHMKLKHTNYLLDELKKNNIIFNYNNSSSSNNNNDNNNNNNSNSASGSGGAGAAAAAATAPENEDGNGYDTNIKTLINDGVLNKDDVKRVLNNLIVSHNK
# Experiment: PBM E-score (8-mer binding enrichment) (E-score (-0.5 to 0.5)); higher = stronger / more preferred TF binding; most listed sequences are background and not binding sites
# Details: protein concentration: 200 nM; construct: GST-full length
# In short: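 The E-score, a modified Wilcoxon-Mann-Whitney statistic, was computed by the Universal PBM Analysis Suite for every ungapped eight-base word pooled with its reverse complement. Scans behind it were normalised with masliner after bound GST-tagged yeast transcription factors were detected with fluorescent anti-GST. The proteins, at about 100-200 nM, had been applied to universal all-10-mer Agilent arrays made double-stranded by primer extension.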
row,Sequence,PBM E-score
1,AGATCGCC,-0.138
2,CAGAACGA,-0.058
3,CATAGGAC,-0.0353
4,CGGCTGCA,-0.252
5,GTTCTACA,0.302
6,GGGGAAAA,-0.211
7,AGAAACCA,-0.107
8,ATCCTAGC,-0.0862
9,AGCTATTA,-0.00789
10,TCTGACAA,0.122
11,CCGTTCCA,-0.133
12,CGCAACTA,-0.00082
13,CGTTAACG,0.1
14,CAAGAACC,0.0697
15,TGCCGTAA,-0.0574
16,GAAGGCGC,0.362
17,ATAATTCA,0.15
18,GAGCCTAA,0.278
19,GACTCGTA,-0.0701
20,ACACATAG,0.139
21,AGAGTGTG,0.154
22,ACAGTTAG,0.0261

row,Sequence,PBM E-score
1,CAAAGCGG,-0.0413
2,AGCGTCAT,-0.0296
3,CACTATGG,-0.048
4,CTTTACGC,0.33
5,CAATCCAG,-0.15
6,CAAATCTG,-0.0901
7,CTCCCCGA,-0.153
8,GATTAAGC,-0.183
9,ACATAAGT,0.235
10,AAACTTCA,0.126
11,AAAGTTCT,-0.205
12,ACGGCGAT,0.00109
13,ACGCGACG,0.266
14,CACTACAA,0.186
15,AATTTAGC,-0.12
16,CCGACCTA,-0.203
17,GAAACTGA,-0.103
18,AAAGACCG,0.0522
19,CGTCGCTA,-0.0563
20,TCGGTCAA,0.0157
21,CGCCTTGA,-0.0273
22,GCACTCCC,-0.112

row,Sequence,PBM E-score
1,ATCGAGAT,-0.238
2,AAAGTAAA,0.186
3,CTTTTCCC,-0.0316
4,ATTGCATC,-0.00145
5,ATGAGTAA,-0.051
6,AGAAAGTG,-0.0456
7,AACATGGC,0.268
8,AATGGGAA,-0.121
9,ATACAATG,0.00795
10,GGGGCACC,-0.152
11,AAGAAGAT,0.0804
12,CGGTGAAA,-0.0615
13,GCTCCACA,-0.0932
14,CAACTGAC,-0.0668
15,ACGAAAAG,-0.00404
16,GAAAAAGC,0.0635
17,GTACATAC,0.313
18,TCTGCAAA,0.0287
19,AGAGCCTA,0.177
20,AGCGCCGA,-0.311
21,ATCACAAC,0.116
22,AAGAAATA,0.131

row,Sequence,PBM E-score
1,ATGCTATA,-0.013
2,CTCCTTTA,0.15
3,GCAATAGA,-0.018
4,AACACGTT,0.365
5,TGTAACAA,0.28
6,CAGGTGGA,-0.0981
7,ACTTTCAT,-0.13
8,AATAGGGC,0.0927
9,ATTCTCAG,-0.0794
10,ATCAGAAA,0.0805
11,AACGCCCC,-0.0905
12,ATCTTAAG,-0.14
13,CTTAACTA,0.139
14,CTAGTGAG,-0.236
15,CGTCTGAC,-0.068
16,ATCTTAAA,-0.0684
17,ATACTTCA,-0.124
18,ACGGCTCT,-0.196
19,CAATAAGA,-0.049
20,ATCCCCGA,-0.15
